The other results are listed elsewhere or left out. Repeats are few or missing, and single values can be far off.
What was measured:
Assay in all cases: cell count relative to DMSO control; melanoma cells; higher = more viable cells
Details in all cases: library dose: standard library concentration; 72 h
501Mel = test system: 501Mel
A101D = test system: A101D
A2058 = test system: A2058
A375 = test system: A375
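Also: cells treated in 1,536-well plates, then fixed and DAPI-stained, with nuclei counted from automated high-throughput microscope images.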

Row | SMILES | cell count (501Mel) | cell count (A101D) | cell count (A2058) | cell count (A375)
1 | Cn1c(=O)n(-c2ccc(C(C)(C)C#N)cc2)c2c3cc(-c4cnc5ccccc5c4)ccc3ncc21 + O=C(O)C(=O)Nc1sc2c(c1C(=O)O)CCNC2 [TCS401] (first compound 0.02 µM, partner dose 8.33333 µM) | 60.9% | 77.6% | 71.6% | 113%
2 | Cc1cn(-c2cc(NC(=O)c3ccc(C)c(Nc4nccc(-c5cccnc5)n4)c3)cc(C(F)(F)F)c2)cn1 [nilotinib] + Cn1cc(/C=C2\C(=O)Nc3cccnc32)c2ccccc21 [GW441756] (first compound 1 µM, partner dose 2 µM) | 79.8% | 83.6% | 97% | 138%
3 | Cc1cn(-c2cc(NC(=O)c3ccc(C)c(Nc4nccc(-c5cccnc5)n4)c3)cc(C(F)(F)F)c2)cn1 [nilotinib] + COc1ccc(COc2ccc(Cc3cnc(N)nc3N)cc2OC)cc1 [GW2580] (first compound 1 µM, partner dose 5 µM) | 72.4% | 92.6% | 117% | 95.3%
4 | COc1ccc(C2=N[C@@H](c3ccc(Cl)cc3)[C@@H](c3ccc(Cl)cc3)N2C(=O)N2CCNC(=O)C2)c(OC(C)C)c1 [Nutlin-3] + Cc1cc([N+](=O)[O-])ccc1NS(=O)(=O)c1cc(Cl)ccc1Cl [FH535] (first compound 0.5 µM, partner dose 5 µM) | 75.6% | 69.4% | 86.5% | 72.4%
5 | Cn1c(=O)n(-c2ccc(C(C)(C)C#N)cc2)c2c3cc(-c4cnc5ccccc5c4)ccc3ncc21 + Cn1cc(/C=C2\C(=O)Nc3cccnc32)c2ccccc21 [GW441756] (first compound 0.02 µM, partner dose 2 µM) | 94.6% | 77.7% | 92.1% | 108%
6 | COc1ccc(C2=N[C@@H](c3ccc(Cl)cc3)[C@@H](c3ccc(Cl)cc3)N2C(=O)N2CCNC(=O)C2)c(OC(C)C)c1 [Nutlin-3] + Oc1cc(-c2nc(-c3ccccc3)[nH]c2-c2ccncc2)ccc1Cl [L779450] (first compound 0.5 µM, partner dose 1 µM) | 60.7% | 51.9% | 113% | 91%
7 | Cn1c(=O)n(-c2ccc(C(C)(C)C#N)cc2)c2c3cc(-c4cnc5ccccc5c4)ccc3ncc21 + CCN(CC)CCCCNc1ncc2cc(-c3cc(OC)cc(OC)c3)c(NC(=O)NC(C)(C)C)nc2n1 [PD173074] (first compound 0.02 µM, partner dose 0.5 µM) | 75.5% | 70.5% | 61.9% | 77.3%
8 | Cn1c(=O)n(-c2ccc(C(C)(C)C#N)cc2)c2c3cc(-c4cnc5ccccc5c4)ccc3ncc21 + CCCCCCCCCCCC1=C(O)C(=O)C=C(O)C1=O [Embelin] (first compound 0.02 µM, partner dose 6 µM) | 72.8% | 73.5% | 73.5% | 92.2%
9 | CC(C)C[C@H](NC(=O)[C@H](Cc1ccccc1)NC(=O)c1cnccn1)B(O)O [Bortezomib] + N#Cc1c(O)c2c(-c3ccc(-c4ccccc4O)cc3)csc2[nH]c1=O [A769662] (first compound 0.005 µM, partner dose 10 µM) | 8.64% | 8.32% | 5.11% | 103%
10 | Cc1cn(-c2cc(NC(=O)c3ccc(C)c(Nc4nccc(-c5cccnc5)n4)c3)cc(C(F)(F)F)c2)cn1 [nilotinib] + O=c1cc(-c2cccc3c2Sc2ccccc2S3)oc(N2CCOCC2)c1 [KU55933] (first compound 1 µM, partner dose 5 µM) | 86.9% | 83.2% | 91.6% | 119%
11 | CC(C)C[C@H](NC(=O)[C@H](Cc1ccccc1)NC(=O)c1cnccn1)B(O)O [Bortezomib] + Cc1cc([N+](=O)[O-])ccc1NS(=O)(=O)c1cc(Cl)ccc1Cl [FH535] (first compound 0.005 µM, partner dose 5 µM) | 4.97% | 7.44% | 27.5% | 76.5%
12 | Cc1cn(-c2cc(NC(=O)c3ccc(C)c(Nc4nccc(-c5cccnc5)n4)c3)cc(C(F)(F)F)c2)cn1 [nilotinib] + COC(=O)c1sccc1S(=O)(=O)Nc1ccc(Nc2ccccc2)cc1OC [GSK0660] (first compound 1 µM, partner dose 5 µM) | 111% | 86.8% | 115% | 110%
13 | COc1ccc(C2=N[C@@H](c3ccc(Cl)cc3)[C@@H](c3ccc(Cl)cc3)N2C(=O)N2CCNC(=O)C2)c(OC(C)C)c1 [Nutlin-3] + O=C1NC(=O)/C(=C/c2ccc(-c3ccc(F)cc3O)o2)S1 [AS252424] (first compound 0.5 µM, partner dose 5 µM) | 80.1% | 69% | 98.2% | 103%
14 | Cc1cn(-c2cc(NC(=O)c3ccc(C)c(Nc4nccc(-c5cccnc5)n4)c3)cc(C(F)(F)F)c2)cn1 [nilotinib] + O=C(Nc1ccccc1)c1cc([N+](=O)[O-])ccc1Cl [GW9662] (first compound 1 µM, partner dose 10 µM) | 89.1% | 83.5% | 106% | 156%
15 | Cc1cc(Nc2cc(N3CCN(C)CC3)nc(/C=C/c3ccccc3)n2)n[nH]1 + Oc1nc(-c2ccc(C(F)(F)F)cc2)nc2c1CSCC2 [XAV939] (first compound 0.2 µM, partner dose 10 µM) | 110% | 87.6% | 69.3% | 91.4%
16 | Cc1cc(Nc2cc(N3CCN(C)CC3)nc(/C=C/c3ccccc3)n2)n[nH]1 + Cc1cc([N+](=O)[O-])ccc1NS(=O)(=O)c1cc(Cl)ccc1Cl [FH535] (first compound 0.2 µM, partner dose 5 µM) | 61.4% | 70.7% | 75.7% | 79.7%
17 | Cc1cn(-c2cc(NC(=O)c3ccc(C)c(Nc4nccc(-c5cccnc5)n4)c3)cc(C(F)(F)F)c2)cn1 [nilotinib] + COc1cc2ncnc(Nc3ccc(Oc4ccccc4)cc3)c2cc1OC [SrcI1] (first compound 1 µM, partner dose 10 µM) | 72.7% | 62.8% | 77.2% | 129%
18 | Cc1cc(Nc2cc(N3CCN(C)CC3)nc(/C=C/c3ccccc3)n2)n[nH]1 + O=C(Nc1ccccc1)c1cc([N+](=O)[O-])ccc1Cl [GW9662] (first compound 0.2 µM, partner dose 10 µM) | 63.3% | 74% | 74.6% | 105%
19 | Cn1c(=O)n(-c2ccc(C(C)(C)C#N)cc2)c2c3cc(-c4cnc5ccccc5c4)ccc3ncc21 + O=S(=O)(c1ccccc1)N(CC(F)(F)F)c1ccc(C(O)(C(F)(F)F)C(F)(F)F)cc1 [T0901317] (first compound 0.02 µM, partner dose 7 µM) | 46.7% | 64.6% | 60% | 95.5%
20 | CC(C)C[C@H](NC(=O)[C@H](Cc1ccccc1)NC(=O)c1cnccn1)B(O)O [Bortezomib] + O=C(Nc1ccccc1)c1cc([N+](=O)[O-])ccc1Cl [GW9662] (first compound 0.005 µM, partner dose 10 µM) | 3.59% | 11% | 16.5% | 97.7%
21 | Cc1cc(Nc2cc(N3CCN(C)CC3)nc(/C=C/c3ccccc3)n2)n[nH]1 + CCCCCCCCCCCC1=C(O)C(=O)C=C(O)C1=O [Embelin] (first compound 0.2 µM, partner dose 6 µM) | 75% | 93.7% | 110% | 100%
22 | COc1ccc(C2=N[C@@H](c3ccc(Cl)cc3)[C@@H](c3ccc(Cl)cc3)N2C(=O)N2CCNC(=O)C2)c(OC(C)C)c1 [Nutlin-3] + O=c1cc(-c2cccc3c2Sc2ccccc2S3)oc(N2CCOCC2)c1 [KU55933] (first compound 0.5 µM, partner dose 5 µM) | 59.9% | 57.9% | 83% | 94.1%
23 | Cn1c(=O)n(-c2ccc(C(C)(C)C#N)cc2)c2c3cc(-c4cnc5ccccc5c4)ccc3ncc21 + COc1ccc(COc2ccc(Cc3cnc(N)nc3N)cc2OC)cc1 [GW2580] (first compound 0.02 µM, partner dose 5 µM) | 71.3% | 74.8% | 65.9% | 87.6%
24 | Cc1cn(-c2cc(NC(=O)c3ccc(C)c(Nc4nccc(-c5cccnc5)n4)c3)cc(C(F)(F)F)c2)cn1 [nilotinib] + Oc1nc(-c2ccc(C(F)(F)F)cc2)nc2c1CSCC2 [XAV939] (first compound 1 µM, partner dose 10 µM) | 75.3% | 102% | 75.3% | 126%
25 | COc1ccc(C2=N[C@@H](c3ccc(Cl)cc3)[C@@H](c3ccc(Cl)cc3)N2C(=O)N2CCNC(=O)C2)c(OC(C)C)c1 [Nutlin-3] + O=S(=O)(c1ccccc1)N(CC(F)(F)F)c1ccc(C(O)(C(F)(F)F)C(F)(F)F)cc1 [T0901317] (first compound 0.5 µM, partner dose 7 µM) | 50% | 72.5% | 67.1% | 85.7%
26 | CC(C)C[C@H](NC(=O)[C@H](Cc1ccccc1)NC(=O)c1cnccn1)B(O)O [Bortezomib] + Oc1nc(-c2ccc(C(F)(F)F)cc2)nc2c1CSCC2 [XAV939] (first compound 0.005 µM, partner dose 10 µM) | 61.6% | 50.5% | 78.6% | 105%
27 | Cn1c(=O)n(-c2ccc(C(C)(C)C#N)cc2)c2c3cc(-c4cnc5ccccc5c4)ccc3ncc21 + c1cc(-c2cnn3cc(-c4ccc(OCCN5CCCCC5)cc4)cnc23)ccn1 [Dorsomorphin] (first compound 0.02 µM, partner dose 2 µM) | 33.9% | 73.4% | 48.4% | 72.5%
28 | CC(C)C[C@H](NC(=O)[C@H](Cc1ccccc1)NC(=O)c1cnccn1)B(O)O [Bortezomib] + CC(C)CCN1c2nc(Nc3cc(F)c(O)c(F)c3)ncc2N(C)C(=O)C1C [BID1870] (first compound 0.005 µM, partner dose 1 µM) | 13.5% | 7.84% | 13.5% | 80.2%
